Some of the results follow.
Tested on: HepG2
Assay: cytotoxicity call (relative viability < 0.9)
Details: 10 µM

| Compound | cytotoxicity call |
| --- | --- |
| COc1ccc(NC(=O)Nc2cccc3c2O[C@H](CN(C)Cc2ccc(C(=O)Nc4ccccc4N)cc2)[C@H](C)CN([C@H](C)CO)C3=O)cc1 | inactive |
| Cc1noc(C)c1S(=O)(=O)Nc1ccc2c(c1)C(=O)N([C@H](C)CO)C[C@H](C)[C@@H](CN(C)C(=O)Nc1ccc(C(F)(F)F)cc1)OCCCC[C@H](C)O2 | inactive |
| CC1=C(CCC(=O)O)c2cc3[nH]c(cc4nc(cc5[nH]c(cc1n2)c(C)c5C(C)O)C(C)=C4C(C)O)c(C)c3CCC(=O)O (stereo not given) | active |
| C[C@H]1CCCCO[C@H](CN(C)C(=O)C2CCCCC2)[C@@H](C)CN([C@@H](C)CO)C(=O)c2cc(NS(=O)(=O)c3ccc(Cl)cc3)ccc2O1 | inactive |
| CN(C)c1ncnc2c1ncn2[C@H]1O[C@@H](CO)[C@@H](N)[C@@H]1O | active |
| Cc1ccc(S(=O)(=O)N2C[C@H](O)COC[C@@H]3O[C@@H](CC(=O)NCc4ccc(Cl)c(Cl)c4)CC[C@H]32)cc1 | inactive |
| COc1ccc(S(=O)(=O)Nc2ccc3c(c2)C(=O)N([C@H](C)CO)C[C@H](C)[C@H](CN(C)S(=O)(=O)c2ccc(Cl)cc2)OCCCC[C@@H](C)O3)cc1 | inactive |
| NCc1ccncc1 | inactive |
| COCC(=O)Nc1ccc2c(c1)C(=O)N(C)[C@@H]1CC[C@@H](CC(=O)NCc3ccccc3Cl)O[C@@H]1CO2 | inactive |
| COc1ccc(S(=O)(=O)N2C[C@@H](O)COC[C@@H]3O[C@@H](CC(=O)NCCCN4CCOCC4)CC[C@H]32)cc1 | inactive |
| CC1(C)O[C@@]2(C)CC[C@@H]1C[C@@H]2O[C@H]1O[C@@H](CO)[C@@H](O)[C@@H](O)[C@@H]1O | inactive |
| CC12C=CC(=O)C=C1CCC1C3CC(O)C(O)(C(=O)CO)C3(C)CC(O)C12F (stereo not given) | inactive |
| Cl.Cl.NCCSSCCN | inactive |
| CNC[C@H]1OCCCC[C@H](C)Oc2ccc(NS(=O)(=O)c3cn(C)cn3)cc2C(=O)N([C@@H](C)CO)C[C@@H]1C | inactive |
| CCC1CCC(N)CC1 (stereo not given) | inactive |
| C[C@H]1CN([C@@H](C)CO)C(=O)Cc2cc(NS(=O)(=O)c3ccccc3)ccc2O[C@@H]1CN(C)Cc1ccncc1 | inactive |
| COc1ccc(NC(=O)N(C)C[C@H]2OCCCC[C@H](C)Oc3ccc(NC(=O)c4ccncc4)cc3C(=O)N([C@H](C)CO)C[C@@H]2C)cc1 | inactive |
| Cc1ccc(S(=O)(=O)N(C)C[C@@H]2Oc3ccc(NS(=O)(=O)c4c(C)noc4C)cc3CC(=O)N([C@@H](C)CO)C[C@H]2C)cc1 | inactive |
| C[C@H](CO)N1C[C@H](C)[C@@H](CN(C)S(=O)(=O)c2cccs2)Oc2ccc(NS(C)(=O)=O)cc2C1=O | inactive |
| NC(=O)c1nc2c(s1)CCNCC2 | inactive |
| COc1ccc2c3c([nH]c2c1)[C@H](CO)N(C[C@]13CCN(CC1)CC1CCCC1)C(=O)CN1CCOCC1 | inactive |
| C[C@@H]1CCCCO[C@@H](CN(C)C(=O)Nc2ccc(C(F)(F)F)cc2)[C@@H](C)CN([C@H](C)CO)C(=O)c2cc(NC(=O)Nc3ccc(C(F)(F)F)cc3)ccc2O1 | inactive |
| COc1ccc(CN(C)C[C@@H]2OCCCC[C@H](C)Oc3ccc(NS(=O)(=O)c4ccc(C)cc4)cc3C(=O)N([C@H](C)CO)C[C@@H]2C)cc1 | inactive |
| C[C@@]1(O)CCOC(=O)C1 | inactive |
| C[C@@H]1CN([C@H](C)CO)C(=O)c2cccc(NC(=O)Nc3ccc(F)cc3)c2O[C@H]1CN(C)S(=O)(=O)c1cn(C)cn1 | inactive |
| C[C@H](C(=O)O)N1C(=O)c2ccccc2C1=O | inactive |
| COCC(=O)Nc1ccc2c(c1)OC[C@H](C)N(C(=O)c1ccccc1F)C[C@@H](C)[C@H](OC)CN(C)C2=O | inactive |
| C[C@@H]1CN([C@H](C)CO)C(=O)c2cc(NS(=O)(=O)c3ccccc3)ccc2O[C@@H](C)CCCCO[C@H]1CN(C)C(=O)c1ccccc1 | inactive |
| C[C@H](CO)N1C[C@H](C)[C@H](CN(C)C(=O)Nc2ccc3c(c2)OCO3)OCCCC[C@H](C)Oc2ccc(NC(=O)c3ccncc3)cc2C1=O | inactive |
| C[C@@H]1CN([C@H](C)CO)C(=O)c2cc(NC(=O)Nc3ccc(C(F)(F)F)cc3)ccc2O[C@H]1CN(C)Cc1ccccc1 | active |

Tested on: S. aureus RN4220
Assay: growth inhibition call (relative growth <= 0.2)
Details: 50 µM

| Compound | growth inhibition call |
| --- | --- |
| C[C@H](CO)N1C[C@H](C)[C@@H](CN(C)C(=O)Nc2cccc(F)c2)Oc2ncc(Br)cc2C1=O | inactive |
| C[C@@H]1CN([C@H](C)CO)C(=O)c2cc(NC(=O)c3ccncc3)ccc2O[C@@H](C)CCCCO[C@H]1CN(C)C(=O)Nc1ccccc1 | inactive |
| C[C@@H]1CN([C@@H](C)CO)S(=O)(=O)c2ccc(C#CC3CCCC3)cc2O[C@@H]1CN(C)C(=O)Cc1ccncc1 | inactive |
| C[C@@H]1CCCCO[C@@H](CN(C)C(=O)Nc2ccc(C(F)(F)F)cc2)[C@H](C)CN([C@@H](C)CO)C(=O)c2cc(N(C)C)ccc2O1 | inactive |
| CC(C)NC(=O)N(C)C[C@H]1OCCCC[C@H](C)Oc2ccc(NC(=O)C3CCCCC3)cc2C(=O)N([C@@H](C)CO)C[C@H]1C | inactive |
| C[C@H]1CCCCO[C@H](CN(C)Cc2ccncc2)[C@@H](C)CN([C@@H](C)CO)C(=O)c2cc(NC(=O)C3CCCCC3)ccc2O1 | inactive |
| C[C@H]1CCCCO[C@@H](CN(C)Cc2ccccc2)[C@@H](C)CN([C@@H](C)CO)C(=O)c2cc(NC(=O)Nc3ccccc3)ccc2O1 | inactive |
| CCS(=O)(=O)N1CC[C@]2(CC1)CN([C@H](CO)c1c2c2ccc(cc2n1C)OC)C(=O)CN1CCOCC1 | inactive |
| Cc1noc(C)c1NC(=O)N(C)C[C@@H]1Oc2ccc(NS(=O)(=O)c3cn(C)cn3)cc2CC(=O)N([C@@H](C)CO)C[C@H]1C | inactive |
| C[C@@H]1CN([C@@H](C)CO)C(=O)c2cc(NS(=O)(=O)c3cn(C)cn3)ccc2O[C@@H]1CN(C)C(=O)Nc1ccc(F)cc1 | inactive |
| COc1ccc(NC(=O)Nc2cccc3c2O[C@H](CN(C)Cc2ccc(C(=O)Nc4ccccc4N)cc2)[C@H](C)CN([C@H](C)CO)C3=O)cc1 | inactive |
| Cc1noc(C)c1S(=O)(=O)Nc1ccc2c(c1)C(=O)N([C@H](C)CO)C[C@H](C)[C@@H](CN(C)C(=O)Nc1ccc(C(F)(F)F)cc1)OCCCC[C@H](C)O2 | inactive |
| CC1=C(CCC(=O)O)c2cc3[nH]c(cc4nc(cc5[nH]c(cc1n2)c(C)c5C(C)O)C(C)=C4C(C)O)c(C)c3CCC(=O)O (stereo not given) | inactive |
| C[C@H]1CCCCO[C@H](CN(C)C(=O)C2CCCCC2)[C@@H](C)CN([C@@H](C)CO)C(=O)c2cc(NS(=O)(=O)c3ccc(Cl)cc3)ccc2O1 | inactive |
| CN(C)c1ncnc2c1ncn2[C@H]1O[C@@H](CO)[C@@H](N)[C@@H]1O | inactive |
| Cc1ccc(S(=O)(=O)N2C[C@H](O)COC[C@@H]3O[C@@H](CC(=O)NCc4ccc(Cl)c(Cl)c4)CC[C@H]32)cc1 | inactive |
| COc1ccc(S(=O)(=O)Nc2ccc3c(c2)C(=O)N([C@H](C)CO)C[C@H](C)[C@H](CN(C)S(=O)(=O)c2ccc(Cl)cc2)OCCCC[C@@H](C)O3)cc1 | inactive |
| NCc1ccncc1 | inactive |
| COCC(=O)Nc1ccc2c(c1)C(=O)N(C)[C@@H]1CC[C@@H](CC(=O)NCc3ccccc3Cl)O[C@@H]1CO2 | inactive |
| COc1ccc(S(=O)(=O)N2C[C@@H](O)COC[C@@H]3O[C@@H](CC(=O)NCCCN4CCOCC4)CC[C@H]32)cc1 | inactive |

| Compound | growth inhibition call |
| --- | --- |
| CC1(C)O[C@@]2(C)CC[C@@H]1C[C@@H]2O[C@H]1O[C@@H](CO)[C@@H](O)[C@@H](O)[C@@H]1O | inactive |
| CC12C=CC(=O)C=C1CCC1C3CC(O)C(O)(C(=O)CO)C3(C)CC(O)C12F (stereo not given) | inactive |
| Cl.Cl.NCCSSCCN | inactive |
| CNC[C@H]1OCCCC[C@H](C)Oc2ccc(NS(=O)(=O)c3cn(C)cn3)cc2C(=O)N([C@@H](C)CO)C[C@@H]1C | inactive |
| CCC1CCC(N)CC1 (stereo not given) | inactive |
| C[C@H]1CN([C@@H](C)CO)C(=O)Cc2cc(NS(=O)(=O)c3ccccc3)ccc2O[C@@H]1CN(C)Cc1ccncc1 | inactive |
| COc1ccc(NC(=O)N(C)C[C@H]2OCCCC[C@H](C)Oc3ccc(NC(=O)c4ccncc4)cc3C(=O)N([C@H](C)CO)C[C@@H]2C)cc1 | inactive |
| Cc1ccc(S(=O)(=O)N(C)C[C@@H]2Oc3ccc(NS(=O)(=O)c4c(C)noc4C)cc3CC(=O)N([C@@H](C)CO)C[C@H]2C)cc1 | inactive |
| C[C@H](CO)N1C[C@H](C)[C@@H](CN(C)S(=O)(=O)c2cccs2)Oc2ccc(NS(C)(=O)=O)cc2C1=O | inactive |
| NC(=O)c1nc2c(s1)CCNCC2 | inactive |
| COc1ccc2c3c([nH]c2c1)[C@H](CO)N(C[C@]13CCN(CC1)CC1CCCC1)C(=O)CN1CCOCC1 | inactive |
| C[C@@H]1CCCCO[C@@H](CN(C)C(=O)Nc2ccc(C(F)(F)F)cc2)[C@@H](C)CN([C@H](C)CO)C(=O)c2cc(NC(=O)Nc3ccc(C(F)(F)F)cc3)ccc2O1 | inactive |
| COc1ccc(CN(C)C[C@@H]2OCCCC[C@H](C)Oc3ccc(NS(=O)(=O)c4ccc(C)cc4)cc3C(=O)N([C@H](C)CO)C[C@@H]2C)cc1 | inactive |
| C[C@@]1(O)CCOC(=O)C1 | inactive |
| C[C@@H]1CN([C@H](C)CO)C(=O)c2cccc(NC(=O)Nc3ccc(F)cc3)c2O[C@H]1CN(C)S(=O)(=O)c1cn(C)cn1 | inactive |
| C[C@H](C(=O)O)N1C(=O)c2ccccc2C1=O | inactive |
| COCC(=O)Nc1ccc2c(c1)OC[C@H](C)N(C(=O)c1ccccc1F)C[C@@H](C)[C@H](OC)CN(C)C2=O | inactive |
| C[C@@H]1CN([C@H](C)CO)C(=O)c2cc(NS(=O)(=O)c3ccccc3)ccc2O[C@@H](C)CCCCO[C@H]1CN(C)C(=O)c1ccccc1 | inactive |
| C[C@H](CO)N1C[C@H](C)[C@H](CN(C)C(=O)Nc2ccc3c(c2)OCO3)OCCCC[C@H](C)Oc2ccc(NC(=O)c3ccncc3)cc2C1=O | inactive |
| C[C@@H]1CN([C@H](C)CO)C(=O)c2cc(NC(=O)Nc3ccc(C(F)(F)F)cc3)ccc2O[C@H]1CN(C)Cc1ccccc1 | inactive |
